According to PubChem BioAssay AID1476 (National Center for Advancing Translational Sciences (NCATS), 2009):
Hit rate of the full screen: of about 200,000 compounds, about 4,500 (2.2%) were called active. This list was built around the results that the source calls inconclusive (neither active nor inactive); the mix of calls is not that of the screen. The call rests on the fitted dose curve; in most records, active means well fitted inhibition curve with a large enough effect; inconclusive means small, poorly fitted or top-dose-only effect, or effect the other way; inactive means flat fitted curve, though single readings scatter. Potencies of inconclusive entries are doubtful fits and often do not repeat.

molecular target: Cruzipain (Trypanosoma cruzi) (UniProt P25779); experiment: qHTS Assay for Promiscuous and Specific Inhibitors of Cruzain (without detergent); conditions: purified cruzain, Z-FR-AMC fluorescence, no detergent; further: nearly all actives have a fitted effect of over 40% in size;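 on max response, negative = inhibition: plate controls were enzyme without inhibitor for no effect and buffer without enzyme for full effect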
Summary of the method: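 Detergent-free condition (0.00005% Triton X-100) in acetate buffer pH 5.5 with DTT. 1.5 nM enzyme and compound were pre-mixed 15 min, then 2 uM Z-FR-AMC substrate added; reaction progress from fluorescence change between first and third reads (60 s).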
Potency means the concentration at half of the fitted maximal effect; tags describe the fitted curve by direction and shape.

Sequence of UniProt P25779 (P25779 whole entry, looked up): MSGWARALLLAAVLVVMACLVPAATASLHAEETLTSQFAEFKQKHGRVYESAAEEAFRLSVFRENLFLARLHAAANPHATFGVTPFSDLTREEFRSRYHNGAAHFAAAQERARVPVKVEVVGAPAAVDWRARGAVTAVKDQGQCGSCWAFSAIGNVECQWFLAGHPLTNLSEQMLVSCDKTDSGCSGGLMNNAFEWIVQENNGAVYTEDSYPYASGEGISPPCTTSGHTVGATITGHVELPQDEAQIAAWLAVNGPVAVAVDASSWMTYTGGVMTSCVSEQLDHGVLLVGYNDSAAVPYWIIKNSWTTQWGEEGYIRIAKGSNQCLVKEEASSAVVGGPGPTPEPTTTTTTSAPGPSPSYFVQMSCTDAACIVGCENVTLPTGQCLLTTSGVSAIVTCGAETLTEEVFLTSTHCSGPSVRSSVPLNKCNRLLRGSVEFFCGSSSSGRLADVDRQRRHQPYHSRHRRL

SMILES | Potency | max response, negative = inhibition
O=C(N/N=C/c1ccc([N+](=O)[O-])o1)c1cc(-c2ccncc2)nc2ccccc12 | inconclusive: 39.8 µM [activator, single point] | –
COc1ccccc1N1CCN(C(=O)CSc2nc(-c3ccco3)cc(C(F)(F)F)n2)CC1 | inconclusive: 25.1 µM [activator, single point] | –
CCOc1ccccc1C1C(C(=O)OC)=CN(C)C=C1C(=O)OC | inconclusive: 31.6 µM [activator, single point] | –
Cc1ccc(N2C(=O)/C(=C/c3ccc(CN(CCC#N)S(C)(=O)=O)o3)C(=O)NC2=S)cc1C | inconclusive: 31.6 µM [activator, single point] | –
Oc1ccc(-c2nc(-c3ccc(O)c(O)c3)cs2)cc1 | inconclusive: 31.6 µM [inhibitor, single point] | –
Cc1ccc(C)c(Cn2c(=O)n(CCCC(=O)NCc3ccc4c(c3)OCO4)c(=O)c3sccc32)c1 | – | inactive: -26.7%
NNc1nc(-c2ccccc2)cc(-c2ccccc2O)n1 | active: 15.8 µM | –
Cc1ccc(N2C(=O)N(Cc3cccc(Cl)c3)c3ccccc3S2(=O)=O)cc1 | inconclusive: 39.8 µM [inhibitor, single point] | –
COc1cc(/C=C(/C#N)c2nc3ccccc3[nH]2)ccc1Oc1ncccc1[N+](=O)[O-] | inconclusive: 31.6 µM [inhibitor, single point] | –
Cc1cc[n+]2cc(-c3cccc([N+](=O)[O-])c3)c(-c3cccc([N+](=O)[O-])c3)cc2c1 | inconclusive: 39.8 µM [inhibitor, single point] | –
CCn1nc2cc(C(=O)NCc3cc(C(F)(F)F)cc(C(F)(F)F)c3)ccc2c1OC | inconclusive: 31.6 µM [activator, single point] | –
CCc1ccccc1NC(=O)CSc1nc2c(c(=O)[nH]1)CN(Cc1ccccc1OC)CC2 | – | inactive: 7.05%
c1ccc2[nH]c(CSc3nnc(-c4ccncc4)o3)nc2c1 | active: 12.6 µM | –
CCC(=O)OCC(=O)C1(OC(=O)CC)C(C)CC2C3C(Cl)CC4=CC(=O)C=C[C@@]4(C)C3C(O)C[C@@]21C (some centres not stated) | inconclusive: 31.6 µM [activator, single point] | –
Cc1oc2c(c1C(=O)c1ccccc1)C(=O)C(=O)c1ccccc1-2 | inconclusive: 39.8 µM [inhibitor, single point] | –
O=C(NCc1ccc(Cl)cc1Cl)c1cccc(N2CCCS2(=O)=O)c1 | – | inactive: 7.62%
Cc1cccc(N2CCN(C(=S)c3ccc(-c4ccccc4[N+](=O)[O-])o3)CC2)c1 | inconclusive: 31.6 µM [inhibitor, single point] | –
